The whole screen tested about 43,000 compounds, of which about 200 (0.47%) were called active. About 12% were inconclusive and are not listed. The call rests on the fitted dose curve; in most records, active means well fitted cell-killing curve with a large enough effect; inconclusive means small, poorly fitted or top-dose-only effect, or effect the other way; inactive means flat fitted curve, though single readings scatter. This is one part of the list.
Assay: Cell viability qHTS assay in S16 Pmp22-F2sN cells; further: nearly all actives have a fitted effect of over 65% in size
Conditions: S16 Pmp22-F2sN Schwann cells viability, CellTiter-Glo, 24 h; series mostly up to 57.5 µM; activity change, negative = cytotoxicity: at the top concentration
In short: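 Used to flag compounds lowering reporter output through toxicity, this quantitative HTS measures ATP-based CellTiter-Glo luminescence in S16 Pmp22-F2sN Schwann cells after 24 h compound exposure at 37C.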
On the % scale 0 is the no-effect control and ±100 the full control effect.

SMILES | activity change, negative = cytotoxicity
Cc1ccc(N2CCN(C(=O)c3cccn4c(=O)c5ccc(Cl)cc5nc34)CC2C)cc1 (stereo not given) | inactive: 6.68%
COc1cccc(N2CCN(C(=O)c3cnn(-c4ccccc4Cl)c3C3CCN(C(=O)OC(C)(C)C)CC3)CC2)c1 | inactive: -10.7%
CCCCc1ccc(NS(=O)(=O)c2cc3c4c(c2)CC(=O)N4CCC3)cc1 | inactive: -4.8%
CCOCCCNC(=O)c1ccc2c(=O)n(CCc3ccccc3)c(=O)[nH]c2c1 | inactive: 0.215%
CCc1ccc2oc(-c3cc(NC(=O)c4cc(OC)c(OC)c(OC)c4)ccc3O)nc2c1 | inactive: -8.88%
CC(=O)c1ccc(NC(=O)CSc2nc(=O)n(Cc3ccccn3)c3c2CCC3)cc1 | inactive: 4.84%
COc1cccc(NC(=O)C2CCC(CNS(=O)(=O)c3csc(C(N)=O)c3)CC2)c1 (stereo not given) | inactive: 2.02%
COc1cc(NC(=O)C2CCN(c3cnccn3)CC2)cc(OC)c1 | inactive: -6.4%
O=C(Cn1c(=O)n(Cc2ccco2)c(=O)c2oc3ccccc3c21)Nc1ccccc1 | inactive: -4%
COc1cccc(-c2cn3c(n2)sc2cc(C(=O)NC4CCCCC4)ccc23)c1 | inactive: 7.37%
CCc1ccccc1Nc1nn2c(=O)c3ccc(C(=O)NC(C)C)cc3nc2s1 | inactive: 14.9%
CCN(CCCNC(=O)c1cc2c(=O)n(C)c3ccccc3c2s1)c1ccccc1 | inactive: -19.4%
COc1ccccc1NC(=O)CN1C(=O)C(c2ccc(F)cc2)=NC12CCCCC2 | inactive: 17.1%
COc1ccccc1N1CCN(C(=O)C2CCN(S(=O)(=O)c3cn(C)cn3)CC2)CC1 | inactive: 2.24%
CN1CCN(CCNC(=O)c2cnn(-c3ccc(Cl)cc3)c2C2CCN(C(=O)OC(C)(C)C)CC2)CC1 | inactive: 3.64%
CCN(C(=O)C1CCN(S(=O)(=O)c2c(C)noc2/C=C/c2ccc(C)cc2)CC1)c1cccc(C)c1 | inactive: 4.9%
CCOc1ccc(-c2nonc2NC(=O)c2oc3ccc(CC)cc3c2C)cc1 | inactive: -13.3%
COc1ccc(Cl)cc1NC(=O)c1cnc2sc(N3CCOCC3)nn2c1=O | inactive: 12.3%
Cc1ccc(CNC(=O)c2cnc3c(-c4ccc(F)cc4)c(C)nn3c2C)o1 | inactive: 1.82%
O=C(CCCCCn1c(=O)c2sccc2n(Cc2ccccc2Cl)c1=O)NCc1ccc2c(c1)OCO2 | inactive: -4.62%
Cc1ccc(S(=O)(=O)Nc2ccc3nc(-c4cccc(Cl)c4)oc3c2)cc1 | inactive: 5.71%
COc1ccc(CCNC(=O)C(C)n2nc(C)c3sc4ccccc4c3c2=O)c(OC)c1 (stereo not given) | inactive: -0.307%
CCC(=O)N1CCc2cc(S(=O)(=O)NC(Cc3ccccc3)C(=O)O)ccc21 (stereo not given) | inactive: 12%
COc1ccc(NC(=O)CSc2nc3ccccc3c(=O)n2CCC(=O)NC2CCCCC2)c(OC)c1 | inactive: 4.5%

SMILES | activity change, negative = cytotoxicity
Fc1ccc(Nc2nc3ccccc3n3cnnc23)c(F)c1 | inactive: 19.5%
Cc1nc2nc(CNC(=O)c3cccc(F)c3)nn2c(C)c1CCC(=O)Nc1cccc(Cl)c1 | inactive: -7.47%
Cc1nn(C(C)C(=O)Nc2ccccc2C(F)(F)F)c(=O)c2c1sc1ccccc12 (stereo not given) | inactive: -0.905%
CC(C)(C)c1ccc(C(=O)Nc2c(C(=O)c3ccc(F)cc3)oc3ccccc23)cc1 | inactive: 21.1%
Cc1ccc(N(CC(C)C)S(=O)(=O)c2nnc(NC(=O)C(C)C)s2)cc1 | inactive: 4.28%
COc1ccccc1CNC(=O)COCc1cc(-c2cccs2)on1 | inactive: 4.25%
COc1ccc(NC(=O)c2nc(-c3ccc(C)cc3)n3c2CCCCC3)cc1 | inactive: -6.5%
COc1cccc(C(=O)N(Cc2nc(-c3ccc(Cl)cc3)no2)C(C)C)c1OC | inactive: -15.1%
COc1ccc(Oc2nc3c(c(=O)n(Cc4ccc(Br)cc4)c(=O)n3C)n2C)cc1 | inactive: -2.73%
O=C(c1ccc(F)cc1)n1nc(-c2cccnc2)nc1NCc1ccccc1 | inactive: -3.4%
COc1ccc(-n2ccnc(NCCc3ccccc3)c2=O)cc1OC | inactive: -23.6%
CC(C)c1ccc(N(CC(=O)O)S(=O)(=O)c2ccc3[nH]c(=O)c(=O)[nH]c3c2)cc1 | inactive: 3.84%
Cc1ccc2oc(C(=O)Nc3ccc(S(=O)(=O)Nc4nccc(C)n4)cc3)cc(=O)c2c1 | inactive: -4.14%
COc1ccc(Br)cc1CNC(=O)CN1C(=O)c2cccnc2Oc2ccc(C)cc21 | inactive: 3%
Cc1ccc2ncc3c(-c4ccc(F)cc4)nn(CC(=O)Nc4ccccc4C)c3c2c1 | inactive: 4.15%
COc1ccc(-c2nc3sc(CCNS(=O)(=O)c4ccccc4)c(C)n3n2)cc1 | inactive: 8.97%
Cc1ccc2[nH]c3c(=O)n(CC(=O)Nc4ccc(Br)cc4C)ncc3c2c1 | inactive: 17.8%
CCOc1ccc(C(=O)Nc2cc3c(cc2N2CCCC2)n(C)c(=O)c(=O)n3C)cc1OCC | inactive: 1.44%
CSc1ccc(CCNC(=O)CCCn2c(=O)c3cccn3c3ccccc32)cc1 | inactive: 5.52%
CSc1ncc2c(n1)-c1ccccc1N(Cc1ccccc1)S2(=O)=O | inactive: -3.08%
COc1cc(NS(=O)(=O)c2ccc(NC(=O)c3ccc(Cl)cc3Cl)cc2)nc(OC)n1 | inactive: 11.2%
CNC(=O)c1c(NC(=O)/C=C/c2ccccc2)sc2c1CCC2 | inactive: -11.6%
Cc1ccc2nc(-c3ccc(NC(=O)COc4ccc(Br)cc4Br)cc3)sc2c1 | inactive: 4.84%
COc1ccc(NC(=O)C2CCCN(S(=O)(=O)c3c(C)[nH]c(=O)[nH]c3=O)C2)c(OC)c1 (stereo not given) | inactive: -1.44%

SMILES | activity change, negative = cytotoxicity
O=C(NCc1ccc(F)cc1)C(=O)NCC(c1ccc2c(c1)OCO2)N1CCOCC1 (stereo not given) | inactive: -0.684%
Cc1cccc(-c2nc3nc(C)cc(NC(C)c4ccccc4)n3n2)c1 (stereo not given) | inactive: 0.211%
COc1ccc(C(=O)N(Cc2ccco2)Cc2ccc(C)o2)cc1 | inactive: -1.14%
Cc1ccccc1NC(=O)/C(C#N)=C/c1ccc(Cl)cc1Cl | inactive: 7.45%
CCc1ccc(NCc2cc3cc4c(cc3n(CC(=O)Nc3ccccc3C)c2=O)OCCO4)cc1 | inactive: 0.782%
CCOC(=O)c1ccc(NC(=O)CC(=O)Nc2ccc3nc4n(c(=O)c3c2)CCCCC4)cc1 | inactive: -4.3%
Cc1nn2c(C)c(C(=O)NCCc3ccccc3)cnc2c1-c1ccccc1 | inactive: 11.2%
CCOc1ccc(NC(=O)Cn2nnc(-c3nc(-c4ccncc4)no3)c2N)cc1 | inactive: 2.86%
COc1ccc(-c2nc(CS(=O)CC(=O)NCCc3ccc(Cl)cc3)c(C)o2)cc1OC (stereo not given) | inactive: -20.4%
CCc1ccc(-n2nc(CO)c(C(=O)NC)n2)cc1 | inactive: 0.25%
CCC(=O)N1CCc2cc(CNS(=O)(=O)c3ccc(CC(C)C)cc3)ccc21 | inactive: -16.5%
CCN1CCN(c2ncc3c(n2)CCN(Cc2ccccc2C)C3)CC1 | inactive: 2.2%
CCCCNC(=O)CCCN1C(=O)c2ccccc2Sc2ncccc21 | inactive: 0.401%
Oc1c(C(c2ccc(F)cc2)N2CCN(Cc3ccccc3)CC2)sc2nc(-c3ccco3)nn12 (stereo not given) | inactive: 8.01%
CN1C(=O)C2(c3ccccc31)N(c1cccc(C(F)(F)F)c1)C(=O)CS2(=O)=O (stereo not given) | inactive: -1.11%
COc1cc(CN(C(=O)c2ccccc2F)C2CCS(=O)(=O)C2)cc(OC)c1OC (stereo not given) | inactive: 6.95%
Cc1cccc(N2CCN(C(=O)Cn3c(-c4cccs4)cc4ccccc43)CC2)c1C | inactive: 1.09%
Cc1ccc2c(CC(=O)Nc3ccc(S(=O)(=O)N4CCCCC4)cc3)coc2c1C | inactive: -4.08%
CCCS(=O)(=O)N1CC(=O)N(c2ccc(C)c(Cl)c2)C(C)(C(=O)NC2CCCCCC2)C1 (stereo not given) | inactive: -11.6%
Cc1ccc(Cl)cc1-n1nnc(-c2nc(-c3ccc4c(c3)OCO4)no2)c1C | inactive: -15.1%
COc1ccc(Nc2nn3c(=O)c4cc5c(cc4nc3s2)OCO5)c(OC)c1 | inactive: 28.8%
CCc1ccc(C2c3c(-c4ccccc4O)n[nH]c3C(=O)N2Cc2cccnc2)cc1 (stereo not given) | inactive: -29.4%
CCC(=O)N1c2ccc(S(=O)(=O)CCC(=O)Nc3ccc(OC)cc3OC)cc2CC1C (stereo not given) | inactive: 5.98%
CC(=O)N1CCC(N(CCCOC(C)C)C(=O)Nc2ccc(C)c(C)c2)CC1 | inactive: 2.11%

SMILES | activity change, negative = cytotoxicity
Cc1ccc(NC(=O)c2oc3ccc(S(=O)(=O)N4CCC5(CC4)OCCO5)cc3c2C)cc1Cl | inactive: 7.18%
CCc1cccc(C)c1NC(=O)CSc1nc2ccccc2nc1Cc1ccccc1 | inactive: 0.253%
COc1ccc(-c2nc3cc(NC(=O)COc4ccccc4C)ccc3o2)cc1 | inactive: -2.66%
COc1ccc(CCNC(=O)CN(c2ccccc2)S(=O)(=O)N(C)C)cc1OC | inactive: 8.17%
CCOC(=O)C(C)NC(=O)c1c2c(nc3ccccc13)C(=O)N(C1CCCCC1)C2 (stereo not given) | inactive: 4.48%
COc1cc(C(c2c(C)[nH][nH]c2=O)c2c(C)[nH][nH]c2=O)ccc1OC(=O)c1ccccc1OC | inactive: -1.51%
COC(=O)CC1Oc2ccccc2-n2cc(-c3ccc(F)cc3)nc21 (stereo not given) | inactive: 20.4%
O=C(CN1C(=O)CCSc2ccc(S(=O)(=O)N3CCCC3)cc21)Nc1cccc(F)c1 | inactive: -2.93%
CCc1ccc(-c2cn3nc(CC)sc3n2)cc1 | inactive: 5.44%
COc1cc(OC)c(NC(=O)Cn2ncn3c(cc4cc(C)ccc43)c2=O)cc1Cl | inactive: 6.36%
Cc1cccc(NC(=O)CSC2=Nc3ccccc3C3=NC(CCC(=O)NCc4ccco4)C(=O)N23)c1 (stereo not given) | inactive: -2.93%
COc1ccccc1CNC(=O)Cn1cc2c(n1)-c1c(oc(C(=O)N3CCOCC3)c1C)CC2 | inactive: -13%
COC(=O)c1sccc1S(=O)(=O)N(CC(=O)Nc1cccc(C)c1C)c1ccc(C)c(C)c1 | inactive: -13.7%
COc1ccc(Cn2c(CO)cnc2SCc2ccc(C)cc2)cc1 | inactive: 4.61%
CC(C)(C)OC(=O)N1CCC(c2c(C(=O)N3CCN(Cc4ccccc4)CC3)cnn2-c2cccc(Cl)c2)CC1 | inactive: 6.24%
CC(C)CN(CCNC(=O)CCN1N=C(c2ccccc2)CCC1=O)CC(C)C | inactive: 7.77%
COc1ccc2c(c1)c1c(c(=O)n(CCc3ccccc3)c(=O)n1Cc1cccc(F)c1)n2C | inactive: 1.65%
Cc1ccc(-c2onc(C)c2C)cc1S(=O)(=O)Nc1ccccn1 | inactive: 2.5%
CCc1ccccc1NC(=O)c1ccc2c(c1)CCCN2S(C)(=O)=O | inactive: -3.77%
CCN(CC)C(=O)CSc1nnc2ccc3ccccc3n12 | inactive: 8.85%
Cc1ccc(-c2c(CN3CCN(c4cc(C)ccc4C)CC3)csc2C)cc1 | inactive: 0.653%
CCc1ccccc1NC(=O)CN1C(=O)CCn2nc(-c3cccn3C)cc21 | inactive: -0.036%
CCc1ccc(NC(=O)CC(c2cc(OC)c(OC)c(OC)c2)N2Cc3ccccc3C2=O)cc1 (stereo not given) | inactive: -1.32%
